The source of these data is paper PMC12866851.

Protein sequences, listed by entry. Tags and fused reporters are not part of them.
UniProt Q15388: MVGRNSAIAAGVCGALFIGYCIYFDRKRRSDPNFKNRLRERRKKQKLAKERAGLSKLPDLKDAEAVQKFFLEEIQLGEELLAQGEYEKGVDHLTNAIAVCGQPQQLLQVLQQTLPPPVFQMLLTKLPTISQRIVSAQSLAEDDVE
UniProt Q00987: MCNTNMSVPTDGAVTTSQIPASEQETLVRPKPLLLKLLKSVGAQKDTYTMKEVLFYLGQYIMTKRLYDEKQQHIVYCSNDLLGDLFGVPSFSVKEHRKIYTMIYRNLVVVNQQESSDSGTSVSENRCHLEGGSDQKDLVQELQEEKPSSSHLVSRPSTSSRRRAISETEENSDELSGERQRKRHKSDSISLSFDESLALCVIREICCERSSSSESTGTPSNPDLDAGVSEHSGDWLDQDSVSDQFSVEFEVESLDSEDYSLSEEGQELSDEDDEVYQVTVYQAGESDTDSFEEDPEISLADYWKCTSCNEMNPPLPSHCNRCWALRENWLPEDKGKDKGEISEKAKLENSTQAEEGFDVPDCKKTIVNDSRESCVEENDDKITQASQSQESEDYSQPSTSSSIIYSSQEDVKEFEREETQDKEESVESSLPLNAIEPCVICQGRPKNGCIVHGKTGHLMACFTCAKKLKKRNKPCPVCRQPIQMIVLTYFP

Results are given in words; binding and its absence hold for the method and conditions named. In cells and extracts the contact can be indirect. Some binding calls cover weakened binding; strength is not graded here. For some assays here: Tags and fused reporters may be left off the sequences shown.

The target in test [1] is T1, Long‐chain acyl‐CoA synthetase 5 (ACSL5) (human (endogenous in HCT116)) (UniProt Q9ULC5).
T1 sequence: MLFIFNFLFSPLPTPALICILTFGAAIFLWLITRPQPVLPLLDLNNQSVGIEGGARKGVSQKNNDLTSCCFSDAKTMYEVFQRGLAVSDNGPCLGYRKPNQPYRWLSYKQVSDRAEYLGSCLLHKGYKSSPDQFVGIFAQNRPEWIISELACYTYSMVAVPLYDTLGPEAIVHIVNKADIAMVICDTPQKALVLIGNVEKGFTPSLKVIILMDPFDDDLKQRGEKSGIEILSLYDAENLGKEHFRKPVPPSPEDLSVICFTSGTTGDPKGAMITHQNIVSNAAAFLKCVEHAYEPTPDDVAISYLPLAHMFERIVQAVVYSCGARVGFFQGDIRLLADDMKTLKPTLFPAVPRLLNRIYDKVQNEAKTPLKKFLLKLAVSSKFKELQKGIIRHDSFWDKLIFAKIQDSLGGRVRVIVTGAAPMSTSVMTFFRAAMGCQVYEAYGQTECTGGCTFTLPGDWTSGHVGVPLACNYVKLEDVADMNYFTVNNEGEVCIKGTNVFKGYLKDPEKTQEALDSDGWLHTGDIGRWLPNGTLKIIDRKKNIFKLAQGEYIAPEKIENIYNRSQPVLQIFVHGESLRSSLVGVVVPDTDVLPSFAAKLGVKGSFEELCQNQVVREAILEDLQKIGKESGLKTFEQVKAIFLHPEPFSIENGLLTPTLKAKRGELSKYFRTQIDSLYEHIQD
Kind of test: co-IP; endogenous proteins of HCT116 lysate; IP lysis buffer (50 mM Tris-HCl pH 7.4, 150 mM NaCl, 1 mM EDTA, 5% glycerol, 0.4% Triton X-100, 0.4% NP-40); primary antibody overnight at 4 °C, Protein A/G beads 2 h, five washes; Western blot; in Figure 4I cells cultured with or without glutamine for 48 h.

The target of test [2] is T2, TOM40 (human (endogenous in HCT116)) (UniProt O96008).
T2 sequence: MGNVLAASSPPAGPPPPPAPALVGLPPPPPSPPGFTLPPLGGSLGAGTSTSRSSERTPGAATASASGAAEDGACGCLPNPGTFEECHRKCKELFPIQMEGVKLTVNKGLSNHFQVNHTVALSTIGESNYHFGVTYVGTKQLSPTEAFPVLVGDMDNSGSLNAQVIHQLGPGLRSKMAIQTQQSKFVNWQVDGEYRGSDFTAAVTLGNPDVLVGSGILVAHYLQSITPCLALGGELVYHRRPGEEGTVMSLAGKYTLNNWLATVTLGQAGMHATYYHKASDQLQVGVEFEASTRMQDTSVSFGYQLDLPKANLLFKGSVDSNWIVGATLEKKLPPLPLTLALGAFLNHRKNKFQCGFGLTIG
The test is described as above.

The target of test [3] is TOM20 (human (endogenous in HCT116)) (UniProt Q15388). The test is described as above.
For test [4], the target named is T3, TOM70 (human (endogenous in HCT116)) (UniProt O94826).
T3 sequence: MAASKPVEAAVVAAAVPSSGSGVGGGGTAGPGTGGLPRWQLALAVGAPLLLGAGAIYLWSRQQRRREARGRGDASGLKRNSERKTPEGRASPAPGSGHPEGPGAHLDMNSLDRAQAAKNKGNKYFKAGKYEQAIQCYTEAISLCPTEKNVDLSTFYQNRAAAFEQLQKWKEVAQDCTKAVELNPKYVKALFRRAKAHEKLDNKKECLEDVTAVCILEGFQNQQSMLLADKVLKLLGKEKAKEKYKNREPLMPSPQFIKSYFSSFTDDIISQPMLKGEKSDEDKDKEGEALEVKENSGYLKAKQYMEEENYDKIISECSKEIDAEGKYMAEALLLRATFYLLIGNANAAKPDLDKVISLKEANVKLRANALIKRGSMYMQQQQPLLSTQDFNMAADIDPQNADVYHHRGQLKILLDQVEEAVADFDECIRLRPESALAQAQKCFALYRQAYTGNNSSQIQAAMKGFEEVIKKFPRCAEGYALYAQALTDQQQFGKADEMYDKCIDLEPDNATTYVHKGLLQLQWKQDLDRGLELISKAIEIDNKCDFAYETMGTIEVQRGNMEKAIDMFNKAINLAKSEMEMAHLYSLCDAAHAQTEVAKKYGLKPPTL
Described as above.

Test [5] has as its target MDM2 (human (endogenous in HCT116)) (UniProt Q00987). The experiment in a line: co-IP; MDM2 immunoprecipitates of ubiquitination assays in sh-ctrl or sh-ACSL5 HCT116 cells, with or without glutamine deficiency, followed by MG132; blotted for ubiquitin, MDM2 and ACSL5.
In test [6] the target is T4, HA and GFP epitope‐tagged IDH2 constructs (UniProt P48735).
T4 sequence: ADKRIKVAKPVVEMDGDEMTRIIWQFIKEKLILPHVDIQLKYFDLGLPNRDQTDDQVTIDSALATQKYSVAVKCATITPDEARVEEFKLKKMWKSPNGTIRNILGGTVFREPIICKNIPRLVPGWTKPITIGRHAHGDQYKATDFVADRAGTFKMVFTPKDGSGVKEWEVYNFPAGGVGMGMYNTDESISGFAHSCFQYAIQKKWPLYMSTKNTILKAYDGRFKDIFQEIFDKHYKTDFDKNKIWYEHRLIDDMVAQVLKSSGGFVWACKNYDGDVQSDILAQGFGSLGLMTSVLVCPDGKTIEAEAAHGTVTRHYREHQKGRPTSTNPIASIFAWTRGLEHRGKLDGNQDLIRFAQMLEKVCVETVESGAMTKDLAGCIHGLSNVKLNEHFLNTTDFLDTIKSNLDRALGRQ
The experiment in a line: co-IP; two-phase immunoprecipitation with HA- and GFP-tagged IDH2 constructs; endogenous ACSL5 detected; cells not shown.

B1: TOM40 (protein, UniProt O96008 1-361)
chain: T2 sequence
As for B1, in test [1], the binding entry was “no binding”.

B2: isocitrate dehydrogenase 2 (IDH2) (enzyme, UniProt P48735 40-452)
chain: T4 sequence
As for B2, in test [1], the binding result was “binds”.

B3: TOM70 (receptor, UniProt O94826 1-608)
chain: T3 sequence
B3: the binding entry in test [1] is given as “no binding”.

B4: Long‐chain acyl‐CoA synthetase 5 (ACSL5) (enzyme, UniProt Q9ULC5 1-683)
chain: T1 sequence
Turning to B4, the binding result in test [2] is recorded as “no binding”; in test [3], “binds”; in test [4] it was “no binding”; in test [5] it was “no binding”; in test [6], “binds”.
